# The other results are listed elsewhere or left out. Single values are uncertain, as repeats are few or missing.
# Tested on: MEL-HO
# Experiment: cell count relative to DMSO control; melanoma cells; higher = more viable cells
# Settings: library dose: low library concentration; 72 h
# 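Also: cell number obtained by counting DAPI-stained nuclei in high-throughput microscope images with image analysis software, screen run in 1,536-well plates.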
row,SMILES,cell count
1,"C[C@]12O[C@H](C[C@]1(O)CO)n1c3ccccc3c3c4c(c5c6ccccc6n2c5c31)CNC4=O [Lestaurtinib] + NC1(c2ccc(-c3nc4ccn5c(=O)[nH]nc5c4cc3-c3ccccc3)cc2)CCC1 [MK2206] (first compound 0.004 µM, partner dose 0.4 µM)",81%
2,"C[C@]12O[C@H](C[C@]1(O)CO)n1c3ccccc3c3c4c(c5c6ccccc6n2c5c31)CNC4=O [Lestaurtinib] + C[C@]1(O)C[C@@H](c2nc(-c3ccc4ccc(-c5ccccc5)nc4c3)c3c(N)nccn32)C1 [OSI906] (first compound 0.004 µM, partner dose 0.4 µM)",90.3%
3,"C[C@]12O[C@H](C[C@]1(O)CO)n1c3ccccc3c3c4c(c5c6ccccc6n2c5c31)CNC4=O [Lestaurtinib] + C=C(c1ccc(C(=O)O)cc1)c1cc2c(cc1C)C(C)(C)CCC2(C)C [Bexarotene] (first compound 0.004 µM, partner dose 2 µM)",92.3%
4,"C[C@]12O[C@H](C[C@]1(O)CO)n1c3ccccc3c3c4c(c5c6ccccc6n2c5c31)CNC4=O [Lestaurtinib] + CN1CCN(c2ccc3nc(-c4c(N)c5c(F)cccc5[nH]c4=O)[nH]c3c2)CC1 [Dovitinib] (first compound 0.004 µM, partner dose 0.1 µM)",84.2%
5,"C[C@]12O[C@H](C[C@]1(O)CO)n1c3ccccc3c3c4c(c5c6ccccc6n2c5c31)CNC4=O [Lestaurtinib] + CCCCCCCCc1ccc(CCC(N)(CO)CO)cc1 [fingolimod] (first compound 0.004 µM, partner dose 2 µM)",99.3%

# Reference: the supplement of paper PMC4604168 (melanoma cell lines)
